Measured values as given in PubChem BioAssay AID1963961 (Molecular Pharmacology Branch, DTP, NCI, 2024).
Certain results were filed several times, with different values. Only these are listed. There may be further records. Results that share an entry repeat one measurement across runs, samples, wells, individuals or studies.

Tested on: K98450-129-R-PDC multicell spheroids, viability
Assay: Anticancer human tumor K98450-129-R-PDC patient-derived colon adenocarcinoma cell line growth inhibition [PI3K]
Details: for viability, T/C: stronger effect = lower value; for IC50: compound alone
Description: Combinatorial screen of targeted agents with the PI3K inhibitors inavolisib, alpelisib, duvelisib, and copanlisib in multi-cell type tumor spheroids
A high-throughput screen of multi-cell type tumor spheroids was designed to identify active combinations of targeted small molecules and PI3K pathway inhibitors. Complex spheroids include a stromal component modeled by human endothelial cells (HUVEC) and fibroblasts modeled by human mesenchymal stem cells (MSCs). The concentration ranges selected for each drug and investigational agent were based upon clinically achievable concentrations if the clinical Cmax of the agent was known.
Compounds. The drugs and investigational agents: inavolisib (NSC800729), alpelisib (NSC765974), duvelisib (NSC772469), copanlisib (NSC816437), ipatasertib (NSC767898), afuresertib (NSC778305), talazoparib (NSC767125), sapanisertib (NSC764658), selumetinib (NSC741078), tovorafenib (DAY101, NSC766906), vemurafenib (NSC761431), ravoxertinib (NSC781343), sotorasib (NSC818433), MRTX1133 (NSC 836407), abemaciclib (NSC 768073), palbociclib (NSC758247), venetoclax (NSC 766270), SY5609 (NSC837396), enzalutamide (NSC755605), and darolutamide (NSC825331), were obtained from the National Cancer Institute (NCI) Developmental Therapeutics Program Chemical Repository. The FDA-approved anticancer drug set is available from the NCI Developmental Therapeutics Program. […] The stock solutions were prepared in dimethyl sulfoxide (DMSO, Sigma-Aldrich, St. Louis, MO, cat. D2650) at 800-fold the tested concentration and stored at -70 degrees C prior to their use. All drugs and investigational agents were tested over a range starting from a high concentration at or near the clinical Cmax and decreasing in half-log increments. If the clinical Cmax for an agent had not been determined, the highest concentration tested was 10 microM.
Cell Culture. All cells were maintained in an incubator at 37 degrees C and 5% CO2 with 95% humidity. The PDC lines were cultured according to standard operating procedures established by the NCI PDMR (https://pdmr.cancer.gov/sops/default.htm). All PDCs were thawed and cultured in Matrigel-coated flasks prepared with a working solution of 1X Ham's F-12 nutrient mix, without supplementation (Invitrogen, Waltham, MA, cat. 11765054), 100 U/mL penicillin-streptomycin (Invitrogen, cat. 15140122), and 2.5% Matrigel (Corning Inc., Corning, NY, cat. 354248) for the first three passages. The 354836-022-R-J1-PDC, 475296-252-R-J1-PDC, and 997726-040-R-J2-PDC lines were cultured in 6A media, which includes advanced DMEM/F-12 (Thermo Fisher Scientific, cat. 12634028), 10 mM HEPES (Thermo Fisher Scientific, cat. 15630080), 1X GlutaMAX supplement (Thermo Fisher Scientific, cat. 35050061), 0.1 mg/mL primocin (InvivoGen, San Diego, CA, cat. ant-pm-2), 10% defined fetal bovine serum, heat inactivated (HyClone Laboratories Inc., Logan, UT, cat. SH30070.03HI), 50% L-WRN conditioned media (ATCC, cat. CRL-3276), 1.25 mM N-Acetyl-L-cysteine (Sigma-Aldrich, cat. A9165), 10 mM nicotinamide (Sigma-Aldrich, cat. N0636), 1X B-27 supplement (Thermo Fisher Scientific, cat. 17504044), 1X N-2 supplement (Thermo Fisher Scientific, cat. 17502048), and 10 microM Y-27632 dihydrochloride (Tocris Bioscience, Bristol, United Kingdom, cat. 1254). The 624824-186-R-J2-PDC line was cultured in 6C/Colon 1B media, which includes all 6A media components plus 50 ng/mL human EGF recombinant protein (Thermo Fisher Scientific, cat. PHG0311). […]
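Further: spheroids exposed to agents for seven days before read-out.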

IC50 | Compound | viability, T/C (compound alone 10 µM) | viability, T/C (compound alone 1 µM) | further results
– | Cn1ncc(Cl)c1-c1cc(C(=O)NC(CN)Cc2cccc(F)c2)sc1Cl (stereo not given) | 85.2, 94, 61.5, 74% | – | –
– | CCCS(=O)(=O)Nc1ccc(F)c(C(=O)c2c[nH]c3ncc(-c4ccc(Cl)cc4)cc23)c1F | – | 106, 118, 101, 91.5% | viability, T/C (compound alone 0.1 µM): 104, 107, 116, 81.5%; viability, T/C (compound alone 3.16 µM): 132, 108, 97.4, 103%
3.79 µM, 4.52 µM, > 10 µM, 7.98 µM | C=CC(=O)N1CCN(c2nc(=O)n(-c3c(C)ccnc3C(C)C)c3nc(-c4c(O)cccc4F)c(F)cc23)C(C)C1 (stereo not given) | 32.2, 30.4, 61.1, 50.8% | 82.4, 80, 56, 81.8% | –
– | Cn1ncnc1[C@H]1c2n[nH]c(=O)c3cc(F)cc(c23)N[C@@H]1c1ccc(F)cc1 | – | – | viability, T/C (compound alone 0.01 µM): 99, 101, 89.6, 117%
5.95 µM, 5.81 µM, 5.58 µM, > 10 µM | CC1(C)CCC(CN2CCN(c3ccc(C(=O)NS(=O)(=O)c4ccc(NCC5CCOCC5)c([N+](=O)[O-])c4)c(Oc4cnc5[nH]ccc5c4)c3)CC2)=C(c2ccc(Cl)cc2)C1 | 13.7, 8.19, 4.16, 102% | – | –
